The supplement of paper PMC10126150
Sequences with one replicate were seen in a single cluster, so their values are uncertain.

System: ATP
Experiment: switch fluorescence ratio, 500 uM ATP over buffer (Cy3 cluster intensity, sum of 5 cycles each) (fold (ratio)); higher = stronger signal-on switching upon ATP binding; sequences stand for … in TCGTCGGCAGCGTCAGATGTGTATAAGAGACAGTTTTTTTTTTTTTTTTTTTTTTTTT…TC
Settings: aptamer strand: ATP DNA aptamer (quencher-CACCTGGGGGAGTATTGCGGAGGAAGG + anchor), 100 nM annealed; ATP concentration: 500 uM; one replicate
Summary of the method: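 After annealing to 100 nM quencher-labelled ATP aptamer, Cy3-labelled switching-strand clusters on a modified Illumina MiSeq flow-cell were imaged in selection buffer. A second image followed after 15 min with 500 uM ATP at 22 °C, and five such buffer/ATP cycles were done, each separated by NaOH stripping and re-annealing. The fluorescence ratio, averaged per switch-domain sequence, is summed target-cycle over summed buffer-cycle Cy3 intensity per cluster, with clusters outside 100-1000 RFU excluded.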
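Further: ATP exposure 15 min at 22 °C before imaging.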

Sequence	switch fluorescence ratio
AAAGAGGTCC	1.12
CGATTACCCC	1.1
CTACGAAATA	2.83
GGACGGGCGC	0.925
AGCTTTAGTC	1.06
GAATCCCCAT	1.03
CGTGGTATTC	1.02
TTACTGCTT	0.978
GCGGCATGAA	0.989
CCAACCTGC	1.33
GACTGAAGAC	1.23
AAGGGTTTGG	1.04
GATTCTTCGG	0.956
TACAGCTTAT	1.05
TAGGTAGCGT	0.947
TGAAAAGCCT	1.1
ACTTTCCACC	1.17
TACAGCTGAG	1.01
ATGCGTTTAG	0.997
GCTAGCGCTG	1.04
GATATCGGGA	1.03
GTGAGTGAGA	0.99
CCGAGGGACA	1.36
ATTGTCTCCA	0.977
TTCGCCTTAT	0.989

Sequence	switch fluorescence ratio
TATCCCCTTC	1.03
TAGGCGGCCT	1.02
ATGCAGGCAT	0.997
TGCTTTCTGT	0.993
TCGTCAAAAG	1.01
TTTTGTATCT	0.977
GAGTTTTACT	0.992
CCCAGGAATA	1.46
TGTGTCCCGA	0.986
GTGGTGTCTG	0.988
GAGAGCCGT	0.917
AAGTACATAT	1.26
GTAGTTCGAC	1.01
CAAACGGAGG	0.967
TATCCAAATT	1
TAGAATTTCA	0.995
AACATTCATA	1.02
ATGTAGAAGA	0.995
CCTAAACTGA	1.04
AACGTGAGTT	1.02
AGGAAGTTTC	0.991
TATGTTGTAG	0.993
GCGGCGAGCG	1.03
GTAAAAAGAC	1.11
TAGCATGGGT	1.04

Sequence	switch fluorescence ratio
AGGCCTGTAT	1.01
CATTGCTAC	1.89
CGCTAGAGGC	1.04
TCTGAAAAGC	0.977
CAGAGCTGTG	1.02
ATGTACCTCG	1.05
ACATAGTTCC	1.1
ATAACCAGG	1.39
AGGGGTACGG	0.996
CTTGGGATTG	0.985
CTTCTAAAAC	1.07
AGGATATTTG	1.04
CTTAATGTT	0.957
GCCGCTCTTA	1.01
AATGGGCGTA	1.03
TCCTGGTGAC	1.31
GGGGATAATG	0.994
TATCTGGCCG	1.01
GTACGGTCCT	1.02
TAGAATCACT	0.982
ACTAGGATCT	0.994
CGGCCTTTGA	0.989
AAGAACGATG	1.03
GCCTTTTGT	0.98
TGAGACGATT	0.955

Sequence	switch fluorescence ratio
GCGGCCTGCG	0.963
AAAGGCACGG	1.07
GCTGACCTTT	0.996
GTATTGACGG	1.02
TTAGGGACAC	1.03
ACGTAACTTT	1.26
ATTTTCCCTT	1.04
TTTAACTCTT	1.05
GGCCCCTCCT	1.06
TACTAACGGC	1.51
TAAAGATTAA	1.04
TTGGAAAATC	1.02
CTACTAGATT	1.01
TATGGGTCTG	1.05
TCGCCGTAAA	1.02
CCTTATGAGA	1.03
GAGGTCAGGG	0.965
TCGTACTCTA	1.24
TCGCTCCGCC	4.01
AATTCTCGCT	0.985
CACAACGCAG	1.05
AGGAAGAGG	0.956
TCCAGCGGG	1.02
ACTGCATACA	1.14
ATGGTAACCA	0.969

Sequence	switch fluorescence ratio
ATTTCTGGAG	1.08
ACGACCGAGC	2.31
ACTTTCTTCG	1.53
ATATGTGAGA	1.02
GTAATATAGT	0.989
GCTCAAAGCG	1.01
ATTAATCGTT	0.986
TCAAAGCAGG	1.08
TTAACCGTAA	1.26
AATGGAT	1.03
GGAGTTAGTT	0.99
GGTTGAGCAA	1.37
TGATACATGA	1.03
TTATCTTGGC	1
TACCCTTTGG	1.02
TATTGGGTAC	1.02
ACCTTGTTGG	0.992
CGATATATGT	0.937
ACAGCCGTCG	1.04
TAGCTCGAGC	1.01
TTAGCAGGAT	1
ATTGAAATGA	1.03
CGTAGCGTCG	1.03
CCGCCTTTGA	1.22
GCGGGTTGAC	1.06

Sequence	switch fluorescence ratio
CTGCATACTA	2.31
AATAAGATGG	1.01
AAACACAGTA	1.12
AAAAGGCTTA	1.02
GAATAGGTTG	0.963
TGGGGAAGG	0.975
GAGGGGAATG	0.994
ATTTAATGG	1.02
ACGCACACAA	1.54
ATCCACTGAA	1.04
GTTTCATGGC	0.984
CTTAGCATTC	2.24
CCGGTGTACG	1.1
GCTAAACGGT	1.02
AACACGTTG	1.01
TAGCGCACCG	1.04
CTAGGCGTTC	0.993
CTCTAAAGAG	1.06
GGTAGGTCGA	0.992
GATGAAGAAG	1.03
ATGATCTATG	0.973
GGTTAATATT	1.03
CGTGCTTATT	1.1
ATTAACAGAA	1.03
GTATTTTGGA	1.02

Sequence	switch fluorescence ratio
CCTAGAAGTG	1.01
AGCGGCGGAG	0.964
GGGTCGGGCT	0.951
TAAGGTACAG	1
TGGGCTATTG	1.03
ACGGCATTC	1.32
AGTTTCTTTG	1.01
ATCAAATGGC	1.04
CGAAGAGAGC	0.939
CTTCGATACA	1.04
CAGCGCATTT	1.19
GCTGTCATGC	1.03
TTCACTTCGC	1.3
AACTTTATTA	1.02
TAGAAAGTGG	0.929
GGGGCTCCTA	0.97
ACCGTGGAAC	1.14
CGGATAGCAT	1.13
TTCGGGTCAA	1.07
TTATGTTAAG	1.02
ACGAGGGCTC	0.998
CGACTCCAAG	1
CTCAGAGGGG	1.03
TTAAAATCGG	0.979
TGAGGGGGCA	1.04

Sequence	switch fluorescence ratio
GAGTCTGACG	1.05
TCAAAAATTG	0.994
CCAGTACCT	1.23
CGCGCGCTCA	1.04
AGGGCGGAAG	0.965
TCCTGTAGTA	1.03
GATGTTATGA	1
CTATCGGGGC	0.94
GCCGGAGTTG	1.02
TTCCAGCTTC	1.14
ACTTTCTACT	1.04
ACGAACGAGC	1.3
CACTTGACAA	1.05
AGGGAGGCTG	1.11
ATTTTAGCG	1
ATGCACTCGC	1
GCTTTCTTGA	1.02
TCTGGCGGCT	1.04
TTCATCGTGG	1
GACGGTAATA	1.55
GGGCGTGCTG	0.947
AAGCTGTTGA	1.01
CTCATGTTTG	0.934
ACCCGGTTGT	1.15
TATAATTAGT	0.985
